From the supplement of paper PMC11417369
The other results are listed elsewhere or left out.

System: PfAP2-HC AP2 domain (GST-tagged)
Assay: gcPBM binding intensity (ln(normalized median fluorescence intensity)); higher = stronger DNA binding
Summary of the method: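 Binding intensity is defined as the maximum Masliner-normalised natural-log median intensity across replicate spots for either probe orientation. It was measured on an Agilent 4 × 180k array of primer-extended double-stranded 36-bp intergenic genomic probes and negative controls, to which GST-tagged P. falciparum DNA-binding domains made in E. coli were applied for 1 h in 1× PBS with 1% milk, 0.2 mg/ml BSA, 0.5% salmon testes DNA and 0.03% Triton X-100. Detection was by Alexa488 anti-GST antibody and scanning at 488 nm.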

| Sequence | gcPBM binding intensity (ln) |
| --- | --- |
| TTATAACATATAAACATGTTTCATCTTACGTATTTT [GTGCAC_negctrl_site694] | 9.93 |
| TGTTATATCAATAATATATAATAATACCCTTCTTTT [CACACA_negctrl_site1682] | 9.48 |
| ATATTTAATTTGTATGGTACAGTACGATCTTTCTTT [XGTACX_site5533] | 9.78 |
| ATAAGAATATATAGAGTGCGTTGAAGAATTATAATA | 9.76 |
| AAAAAACATTTGATCTGTACGCATAGACAATTATAT [XGTACX_site960] | 9.57 |
| AATAATATGTTATCTCTTACACATATAAAAAATAAA [XGTACX_negctrl_site370] | 9.53 |
| TAAAAGAAAGCACATACACACACAAAAAAAAAAAAG [CACACA_site8159] | 10.4 |
| AATTAAATGATTTATACATGCATATAAATATAAATA [TGCATGCA_site579] | 9.65 |
| AGTAGAAAAGGAACATGTACGAATTAAAAAAATAAT [XGTACX_site2347] | 9.89 |
| TCTGTAAATATGTATACACACATATATGATCAATAT [CACACA_site3234] | 9.9 |
| ACATATATATATATATATATATATATATTTATTTAT [CACACA_negctrl_site734] | 9.63 |
| TACACCATGATACATACACACAGACATATACACATT [CACACA_site6601] | 10 |
| CAATATATTTGATTTACACACTTACAATGTATTTAA [CACACA_site5632] | 9.79 |
| ATAATCCTTAGACACACACACACACGAATAAATAAA [CACACA_site6364] | 11.3 |
| CGAAAAAATAAAAAAAAAATAAAATAAAATAAATAA [TGCATGCA_negctrl_site278] | 9.58 |
| TTATACTGTACAAAAAGAATAGCAGTATAACAAAAA [CACACA_negctrl_site755] | 9.8 |
| ACAGGATTGGTTCAAACACACATATTATAGGACTAT [CACACA_site6455] | 9.79 |
| AATATGTTTTGTTAGGTTGGTGTTGGTAGAATGTTT [CACACA_negctrl_site1563] | 9.85 |
| AAAAAAAAATCATATTGTACGTAAAAAAAAAAAAAA [XGTACX_site476] | 9.37 |
| AAAAAAAAAAAAAATACACACACACCGATATATATA [CACACA_site8142] | 10.6 |
| ATACATATAATAATATGTACATATAATTATATATAT [XGTACX_site913] | 9.7 |
| AATATAATATACATATGTACATATATATATATATAT [XGTACX_site8218] | 9.77 |

| Sequence | gcPBM binding intensity (ln) |
| --- | --- |
| TATAACACACAATGATGTACATTACATTATTTTTTA [XGTACX_site2076] | 9.71 |
| TTTTCTATATAACAACGTACATTTATTATATTATAA [XGTACX_site6148] | 9.46 |
| ATATATATATATATGTGTACATATTTTTTTGAAGTG [XGTACX_site248] | 9.82 |
| TAATATAAATGAAAGGTGCTTTTGCTTTCTTTTTTT | 9.56 |
| TAATATATTTTTAACATGCACTGTATTTTAATATAT | 9.64 |
| TCTGGATTGGATTACAAGAAAATAAAATATAAAATA [CACACA_negctrl_site122] | 9.35 |
| TATACAAATATATATGCACACACATATATGTATATG [CACACA_site9007] | 10 |
| TATAAAACAAATATATGTACATATCATAGTATAATA [XGTACX_site2965] | 9.75 |
| TAATTAAAGTTATCTACACACCTTTATAGATATATA [CACACA_site7778] | 9.63 |
| ATTATGAATTTAAGACGTACAAAAAATTTTTATTCA [XGTACX_site5682] | 9.53 |
| ACAAGTATTCCTTTTGCACACCTTTCTGCACCTTAT [CACACA_site3873] | 9.97 |
| AAATACTTATTCGTGGTGCAACAATTTTAAAAATTA | 9.49 |
| ATTAAAATAATACGTACACACATGTATAATACATAT [CACACA_site1005] | 9.92 |
| AATAATATATTATATGCATGTGTATAATTTGATATA [TGCATGCA_site1058] | 9.57 |
| TTTGGTTATTTGACCTGTACACATTTAATTATTTTT [XGTACX_site5170] | 9.76 |
| CAAAGGAAATGGTGTACACAATTTTTCCTTTTTCGT [CACACA_site4800] | 9.6 |
| AGCAAGACGGGGTGCACACAAACTAATATGCCGAAT [CACACA_site159] | 9.89 |
| TATTACATAATATATGTACACACGCAAATACTTATA [CACACA_site7994] | 9.77 |
| TAACAACGATACAATTGTACAAATTATATATATATA [XGTACX_site4687] | 10.1 |
| CAAAAAAAGTTATACACACACACACGGATATAAATA [CACACA_site6619] | 10.7 |
| GTATTCATTCCTTGAGTGCAATTGCAATAAATAAAA | 9.68 |
| CATATTAAGATGTGTACACATTTTTATTTTTTTTTT [CACACA_site4425] | 9.78 |
